{"source": "the supplement of paper PMC8728848", "assay_in_all_cases": "glycan array binding signal (z-score within array); higher = stronger binding", "conditions_in_all_cases": "glycan notation: IUPAC condensed, linker removed", "key": {"[1]": {"molecular_target": "Neu5Ac(a2-3)Gal(b1-3)GlcNAc(b1-2)Man(a1-3)[GlcNAc(b1-4)][Neu5Ac(a2-3)Gal(b1-3)GlcNAc(b1-2)Man(a1-6)]Man(b1-4)GlcNAc(b1-4)GlcNAc", "procedure,_shortened": "(§1)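 Columns mapping to the same glycan were averaged after glycan names were converted to IUPAC-condensed notation. The data come from 3228 arrays in the Consortium for Functional Glycomics database, limited to those with an available protein sequence. Binding is reported as a within-array Z-score averaged across arrays of one protein sequence and across linkers.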"}, "[2]": {"molecular_target": "Neu5Ac(a2-3)Gal(b1-3)GlcNAc(b1-2)Man(a1-3)[Neu5Ac(a2-3)Gal(b1-3)GlcNAc(b1-2)Man(a1-6)]Man(b1-4)GlcNAc(b1-4)GlcNAc", "procedure,_shortened": "as §1"}, "[3]": {"molecular_target": "Neu5Ac(a2-3)Gal(b1-3)GlcNAc(b1-3)Gal(b1-3)GlcNAc", "procedure,_shortened": "as §1"}, "[4]": {"molecular_target": "Neu5Ac(a2-3)Gal(b1-3)GlcNAc(b1-3)Gal(b1-4)GlcNAc", "procedure,_shortened": "as §1"}, "[5]": {"molecular_target": "Neu5Ac(a2-3)Gal(b1-3)GlcNAc(b1-3)GalNAc", "procedure,_shortened": "as §1"}, "[6]": {"molecular_target": "Neu5Ac(a2-3)Gal(b1-3)GlcNAc(b1-4)Gal(b1-4)Glc", "procedure,_shortened": "as §1"}, "[7]": {"molecular_target": "Neu5Ac(a2-3)Gal(b1-3)GlcNAc(b1-6)GalNAc", "procedure,_shortened": "as §1"}, "[8]": {"molecular_target": "Neu5Ac(a2-3)Gal(b1-3)GlcNAc6S", "procedure,_shortened": "as §1"}, "[9]": {"molecular_target": "Neu5Ac(a2-3)Gal(b1-3)[Fuc(a1-4)]GlcNAc", "procedure,_shortened": "as §1"}, "[10]": {"molecular_target": "Neu5Ac(a2-3)Gal(b1-3)[Fuc(a1-4)]GlcNAc(b1-3)Gal(b1-3)[Fuc(a1-4)]GlcNAc", "procedure,_shortened": "as §1"}, "[11]": {"molecular_target": "Neu5Ac(a2-3)Gal(b1-3)[Fuc(a1-4)]GlcNAc(b1-3)Gal(b1-4)[Fuc(a1-3)]GlcNAc", "procedure,_shortened": "as §1"}, "[12]": {"molecular_target": "Neu5Ac(a2-3)Gal(b1-3)[GlcNAc(b1-6)]GalNAc", "procedure,_shortened": "as §1"}, "[13]": {"molecular_target": "Neu5Ac(a2-3)Gal(b1-3)[Neu5Ac(a2-6)]GalNAc", "procedure,_shortened": "as §1"}, "[14]": {"molecular_target": "Neu5Ac(a2-3)Gal(b1-3)[Neu5Ac(a2-6)]GlcNAc(b1-3)[Fuc(a1-3)[Gal(b1-4)]GlcNAc(b1-6)]Gal(b1-4)Glc", "procedure,_shortened": "as §1"}, "[15]": {"molecular_target": "Neu5Ac(a2-3)Gal(b1-3)]Neu5Ac(a2-3)Gal(b1-4)]GlcNAc", "procedure,_shortened": "as §1"}, "Neu5Ac(a2-3)Gal(b1-4)Glc": {"molecular_target": "Neu5Ac(a2-3)Gal(b1-4)Glc", "procedure,_shortened": "as §1"}, "[16]": {"molecular_target": "Neu5Ac(a2-3)Gal(b1-4)GlcNAc", "procedure,_shortened": "as §1"}, "[17]": {"molecular_target": "Neu5Ac(a2-3)Gal(b1-4)GlcNAc(b1-2)Man", "procedure,_shortened": "as §1"}, "[18]": {"molecular_target": "Neu5Ac(a2-3)Gal(b1-4)GlcNAc(b1-2)Man(a1-3)[GlcNAc(b1-4)][Neu5Ac(a2-3)Gal(b1-4)GlcNAc(b1-2)Man(a1-6)]Man(b1-4)GlcNAc(b1-4)GlcNAc", "procedure,_shortened": "as §1"}}, "note": "The list shows a part of the results.", "data": [{"binder": "PX9937A-bvu-521-23-521 (Bacteroides vulgatus) (protein) LDLAPEDYYGAGNFWKEASQPKAFMLGLHAQLRSYYDMFYTLGELRGGTQRVGTSSLNTSLNYADIRSQNISEDIPGISNWNGLYSPIMQVNHFIQEVENGCTFLDDATRSRYLGQAYGMRALYYFMLYRTFGGVPLITKVDILDGKPSADKFYVERATPEATMEFIKADINKSENYFGNNTSFDAYDWSRYATLMLKAEIYMWAAKVSITGFTATGATDLQTAKTALSGIIGHFELMDNFASIFSCDNKKNTEIIFAMPFIEGEASNDGGRFLYQDAVFLGQAYGRNGKVIEKDTLNLKGTGGVFRDEYTEDFWKTFKEGDSRRDATFMEYYMKNDNGTLSEFGCVMKKRIGTINSNDNRIYISDIPVYRYADALLMMAEIENGLNNPCASYINEVRKRAYGDTFEENKYTEGSYAENELAILQERDKEFVSEGKRWFDVLRMHDASGRSLVFSANANYPGTNPILGTEEAYKMLWPVNIGTLNVNPLLTQTPGYGKK", "values": [{"measurement": "glycan array binding signal (z-score)", "setting": "[1]", "value": -0.321}, {"measurement": "glycan array binding signal (z-score)", "setting": "[2]", "value": -0.549}, {"measurement": "glycan array binding signal (z-score)", "setting": "[3]", "value": 0.541}, {"measurement": "glycan array binding signal (z-score)", "setting": "[4]", "value": -0.227}, {"measurement": "glycan array binding signal (z-score)", "setting": "[5]", "value": -0.108}, {"measurement": "glycan array binding signal (z-score)", "setting": "[6]", "value": -0.417}, {"measurement": "glycan array binding signal (z-score)", "setting": "[7]", "value": -0.64}, {"measurement": "glycan array binding signal (z-score)", "setting": "[8]", "value": -0.431}, {"measurement": "glycan array binding signal (z-score)", "setting": "[9]", "value": -0.235}, {"measurement": "glycan array binding signal (z-score)", "setting": "[10]", "value": 0.06}, {"measurement": "glycan array binding signal (z-score)", "setting": "[11]", "value": 0.754}, {"measurement": "glycan array binding signal (z-score)", "setting": "[12]", "value": -0.458}, {"measurement": "glycan array binding signal (z-score)", "setting": "[13]", "value": 0.442}, {"measurement": "glycan array binding signal (z-score)", "setting": "[14]", "value": 0.681}, {"measurement": "glycan array binding signal (z-score)", "setting": "[15]", "value": 0.243}, {"measurement": "glycan array binding signal (z-score)", "setting": "Neu5Ac(a2-3)Gal(b1-4)Glc", "value": 0.96}, {"measurement": "glycan array binding signal (z-score)", "setting": "[16]", "value": -0.358}, {"measurement": "glycan array binding signal (z-score)", "setting": "[17]", "value": 0.022}, {"measurement": "glycan array binding signal (z-score)", "setting": "[18]", "value": -0.062}]}]}
